Source: PubChem BioAssay AID1030 (National Center for Advancing Translational Sciences (NCATS), 2008)
In all, about 220,000 compounds went through this assay and about 16,000 (7.3%) were called active. The shares of active, inactive and inconclusive entries below differ from those in the screen. Calls follow the shape of the dose curve; as a rule, active = well fitted inhibition curve with a large enough effect (not every such curve was filed as active); inconclusive = small, poorly fitted or top-dose-only effect, or another doubt; inactive = no such curve, though single readings can be large or run the other way. Potencies of inconclusive entries are left out as doubtful fits.

biological target: Aldehyde dehydrogenase 1A1 (Homo sapiens) (UniProt P00352); assay: qHTS Assay for Inhibitors of Aldehyde Dehydrogenase 1 (ALDH1A1); settings: Purified ALDH1A1, NADH fluorescence, propionaldehyde substrate; series mostly up to 75.3 µM; activity, negative = inhibition: at the top concentration;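 as to activity, negative = inhibition: plate controls were no enzyme wells and a reference inhibitor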
UniProt P00352, sequence (P00352 whole entry, looked up): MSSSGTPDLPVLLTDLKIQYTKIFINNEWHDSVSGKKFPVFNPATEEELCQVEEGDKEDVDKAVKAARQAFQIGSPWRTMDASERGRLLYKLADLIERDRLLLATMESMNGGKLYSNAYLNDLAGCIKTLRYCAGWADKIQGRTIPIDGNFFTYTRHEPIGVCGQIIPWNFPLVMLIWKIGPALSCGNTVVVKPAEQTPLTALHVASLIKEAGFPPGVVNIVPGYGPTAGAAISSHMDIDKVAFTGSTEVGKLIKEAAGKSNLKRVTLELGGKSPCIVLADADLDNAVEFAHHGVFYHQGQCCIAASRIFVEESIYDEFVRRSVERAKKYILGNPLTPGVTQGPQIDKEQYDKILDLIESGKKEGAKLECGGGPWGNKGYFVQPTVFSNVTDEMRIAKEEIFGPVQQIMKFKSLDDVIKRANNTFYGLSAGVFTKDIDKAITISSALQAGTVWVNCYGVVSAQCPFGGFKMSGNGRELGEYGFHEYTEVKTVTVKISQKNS
Potency is read from the fitted curve at half-maximal effect; tags tell the direction and shape of the fitted curve.

Structure (SMILES)	Potency	activity, negative = inhibition
CC(=O)OCCCNc1cc(Sc2nc3ccccc3s2)c2nonc2c1[N+](=O)[O-]	active: 11.2 µM	–
CCCNC(=O)c1ccc(C2SCC(=O)N2CCc2ccccc2)cc1 (stereo not given)	–	inactive: -7.56%
CC(C)C(NS(=O)(=O)c1cccs1)C(=O)N(C)Cc1ccccc1 (stereo not given)	inconclusive [inhibitor, partial curve]	–
C=C1C(CCl)(CCl)C2(Cl)C(Cl)C(Cl)C1(Cl)C2(Cl)Cl (stereo not given)	active: 14.1 µM	–
O=C(N/C=C/c1ccc(Cl)cc1)NCc1ccc(Cl)cc1	inconclusive [inhibitor, single point]	–
O=c1cc(CN2CCC3(CC2)OCCO3)c2c(ccc3ccccc32)o1	inconclusive [inhibitor, single point]	–
COc1ccccc1NC(=S)NC(=O)c1c(-c2ccccc2Cl)noc1C	active: 0.891 µM	–
Cc1c(N/C=C(\Cl)C(=O)C(F)(F)F)c(=O)n(-c2ccccc2)n1C	active: 31.6 µM	–
COC(=O)c1ccc2nc(NC(=O)C3CCCCC3)sc2c1	active: 25.1 µM	–
O=C(NC1CCCCC1)C(c1ccc2ncccc2c1)N(Cc1ccccc1)C(=O)c1cccs1 (stereo not given)	inconclusive [inhibitor, partial curve]	–
O=C(CN1CCN(Cc2ccccc2)CC1)N1N=CCC1c1ccccc1 (stereo not given)	inconclusive [inhibitor, single point]	–
O=C(NC(=S)Nc1ccc(N2CCCCC2)cc1)c1cccs1	active: 22.4 µM	–
CCOC(=O)CNC(=O)c1sc(NC(=O)c2ccccc2F)nc1C	–	inactive: -8.87%
O=c1[nH]c2ccccc2c(O)c1Cc1ccccc1	inconclusive [inhibitor, single point]	–
O=C(CN1CCN(C(=O)c2ccco2)CC1)Nc1cc(C(F)(F)F)ccc1Cl	inconclusive [inhibitor, partial curve, poor fit]	–
Cc1ccc(S(=O)(=O)NCC(=O)OCC(=O)c2cc(C)n(-c3ccccc3)c2C)cc1	inconclusive [inhibitor, partial curve]	–
CCOc1cc(/C=N/O)ccc1OS(=O)(=O)c1ccc(C)cc1	inconclusive [inhibitor, single point]	–
O=C(NC1CC1)c1cc(OCC(F)(F)F)ccc1OCC(F)(F)F	inconclusive [inhibitor, single point]	–
O=[N+]([O-])c1ccc2c(c1)[nH]c(=S)n2-c1ccccc1	active: 3.98 µM	–
C=CCNC(=O)COc1cc(C)cc(C)c1C	–	inactive: 0.722%
Cc1ccc2[nH]c(C)c(CC(=O)O)c2c1	inconclusive [inhibitor, single point]	–
COc1cc(/C=C(\C#N)C(=O)NC2CCCCC2C)ccc1OS(=O)(=O)c1ccc(C)cc1 (stereo not given)	active: 8.91 µM	–
C[C@H](CO)NC(=O)[C@H]1C[C@@H]1[C@H](NP(=O)(c1ccccc1)c1ccccc1)c1ccccc1	–	inactive: 2.2%

Structure (SMILES)	Potency	activity, negative = inhibition
CCCCCC(=O)N/N=C/c1ccc(N(C)C)cc1	inconclusive [inhibitor, single point]	–
O=C(O)c1cc(N2C(=O)C3CC=CCC3C2=O)ccc1NCc1cccnc1 (stereo not given)	inconclusive [inhibitor, partial curve]	–
COc1ccccc1N(CC(=O)NCCSc1ccc(Cl)cc1)S(C)(=O)=O	–	inactive: 15.8%
Cc1cc(N(C)C)c(C#N)c(N2CCCCC2)n1	–	inactive: -6.29%
COC(=O)c1oc2ccc(Br)cc2c1NC(=O)c1ccccc1	inconclusive [inhibitor, single point]	–
CC1CCN(S(=O)(=O)c2ccc3c(c2)c(=O)c(C(=O)NCc2cccs2)cn3C)CC1	inconclusive [inhibitor, full curve]	–
COc1ccc(OC)c(/C=C2\S/C(=N/NC(=O)c3ccc4ccccc4c3)NC2=O)c1	inconclusive [inhibitor, full curve, poor fit]	–
CCc1ccc(NC(=O)CSCCN2C(=O)c3ccccc3C2=O)cc1	inconclusive [inhibitor, single point]	–
O=C(CSc1nc2ccccc2[nH]1)N/N=C/C=C\c1ccccc1[N+](=O)[O-]	active: 5.01 µM	–
S=c1[nH]nc(-c2cc(-c3ccccc3)n[nH]2)n1/N=C/C=C/c1ccccc1	inconclusive [inhibitor, single point]	–
O=C(c1cccnc1)N1CCC(Oc2ccc(C(=O)N3CCCCO3)cc2)CC1	inconclusive [inhibitor, single point]	–
COc1ccccc1NC(=S)N(CCCN1CCOCC1)Cc1cccs1	–	inactive: -15.6%
CCOc1ncccc1C(=O)OCC(=O)Nc1ccc(C(C)C)cc1	inconclusive [inhibitor, single point]	–
CC(=O)Nc1ccc(Cc2nc3c([nH]2)c(=O)n(C)c(=O)n3C)cc1	–	inactive: 2.39%
CCCNCc1cc(OC)c(OCC(=O)Nc2ccccc2)cc1Br	inconclusive [inhibitor, single point]	–
CCn1c(SCc2nc(-c3cccs3)no2)nnc1-c1c[nH]c2ccccc12	–	inactive: -10.5%
COc1ccc(NC(=O)c2ccc(CN3CCN(c4ccccc4)CC3)cc2)cc1OC	inconclusive [inhibitor, single point]	–
O=C(Nc1ccc(S(=O)(=O)Nc2nccs2)cc1)c1cc(-c2ccccc2Cl)nc2ccccc12	inconclusive [inhibitor, partial curve]	–
Cc1ccc(N(CC(=O)Nc2ccccc2-c2ccccc2)S(=O)(=O)c2ccccc2)cc1	–	inactive: -8.98%
CC1Cn2c(nc3sc4c(c3c2=O)CCC4)N1CCO (stereo not given)	inconclusive [inhibitor, partial curve]	–
CCOC(=O)CCN1C(=O)[C@H]2[C@H]3[C@H](O)[C@H](O)C/C(=N/OCC(C)C)[C@H]3CC[C@@H]2C1=O	–	inactive: 4.36% [at 13.5 µM]
CN(C)c1nc(-c2ccccc2)ncc1S(=O)(=O)c1ccccc1	inconclusive [inhibitor, single point]	–
